# According to the supplement of paper PMC3334620:
# Over roughly 33,000 sequences, “E-score (-0.5 to 0.5)” has its median near -0.012; the highest 2% begin near 0.27. Some of the results follow.
# Target: T1, Vhr1 (UniProt P40522)
# T1 sequence: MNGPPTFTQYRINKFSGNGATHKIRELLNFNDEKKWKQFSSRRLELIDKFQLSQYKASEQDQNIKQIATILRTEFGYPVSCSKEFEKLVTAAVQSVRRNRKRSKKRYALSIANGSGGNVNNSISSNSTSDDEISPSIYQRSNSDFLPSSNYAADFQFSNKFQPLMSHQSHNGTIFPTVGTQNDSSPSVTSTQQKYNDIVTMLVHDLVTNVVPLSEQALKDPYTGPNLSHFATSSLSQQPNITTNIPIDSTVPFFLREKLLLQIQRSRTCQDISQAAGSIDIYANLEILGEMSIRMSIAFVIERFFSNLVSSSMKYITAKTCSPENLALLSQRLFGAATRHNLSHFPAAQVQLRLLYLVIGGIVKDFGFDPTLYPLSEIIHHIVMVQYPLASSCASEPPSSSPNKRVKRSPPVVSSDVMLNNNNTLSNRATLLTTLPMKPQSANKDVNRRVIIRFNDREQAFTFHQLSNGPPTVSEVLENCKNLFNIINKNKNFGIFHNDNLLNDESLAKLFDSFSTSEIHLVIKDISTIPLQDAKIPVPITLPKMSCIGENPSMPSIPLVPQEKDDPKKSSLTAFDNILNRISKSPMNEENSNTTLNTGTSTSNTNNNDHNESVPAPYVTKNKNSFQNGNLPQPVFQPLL
# Experiment: PBM E-score (8-mer binding enrichment) (E-score (-0.5 to 0.5)); higher = stronger / more preferred TF binding; most listed sequences are background and not binding sites
# Conditions: protein concentration: 200 nM; construct: GST-full length
# Procedure, shortened: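 E-scores (a modified Wilcoxon-Mann-Whitney statistic) were assigned by the Universal PBM Analysis Suite to every ungapped eight-base word pooled with its reverse complement. The input came from universal all-10-mer Agilent arrays made double-stranded by primer extension and probed with GST-tagged yeast transcription factors at about 100-200 nM. Fluorescent anti-GST detected bound protein, and masliner normalised the scans.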
row,Sequence,PBM E-score
1,CAAATGCA,-0.267
2,TAGTATGA,0.265
3,CGAAAGAG,-0.21
4,AGACAATA,0.156
5,CATTATCA,0.131
6,ACCGCTAA,-0.103
7,AGCGAAAG,-0.203
8,AATTTAAT,-0.0744
9,GCGAGAGC,-0.172
10,GATTACGC,0.138
11,ACCCGGGG,0.0123
12,TAGTGGGA,-0.0353
13,CCGAGCCA,0.148
14,TCAGGAAA,-0.205
15,ATATTGGA,0.0284
16,AAGTGATC,0.00255
17,CTCGGTCA,-0.0702
18,CGATGTCA,-0.0363
19,AACGCTAG,-0.177
20,CCATCATC,0.138
21,ACGTCTCT,-0.234
22,AGAACGAG,0.0663
23,TCCAGGCA,0.0954
24,AAGACACA,-0.0153
25,GTCCCGAA,-0.146

row,Sequence,PBM E-score
1,CAGCATGA,0.198
2,AAATATCT,0.0921
3,ACCGGGTA,0.0893
4,ATATATAT,0.324
5,GCTCACAA,-0.0348
6,ATATCAAC,0.182
7,CGTCCAAC,-0.038
8,CTAGGCTC,-0.22
9,ACCGCGTG,0.0939
10,CACCCGCC,0.329
11,GGAACTAC,-0.0553
12,CGGGAAGC,-0.0043
13,GAAAAACA,-0.106
14,CCCTGGCA,-0.162
15,TAGGAGGA,-0.0312
16,ACCTCAAA,-0.0988
17,ACTTACGA,0.0407
18,AGGGTGGA,0.0785
19,ATAGTATG,0.191
20,ATAACCTC,-0.0658
21,CAGTGTAG,0.137
22,CCAAGTAA,-0.0153
23,GTGCCCAC,-0.0897
24,CTTTTAGA,-0.115
25,GACGAGTA,0.077

row,Sequence,PBM E-score
1,AGAGTTAT,0.0802
2,GACACAGC,0.129
3,CCCCCGCC,-0.109
4,CTTACGGC,-0.333
5,AAACCGGA,-0.0931
6,CCGTCCTC,-0.0308
7,AACCTTTA,-0.174
8,GCTTTGCA,-0.216
9,CTGGCGCA,-0.0167
10,AACACCCC,0.0266
11,AGTGATTA,0.216
12,AATCTGAC,0.0717
13,CCCTCCGA,-0.112
14,GGCTCTCA,-0.223
15,CATACTTA,0.0925
16,CAAGTCTA,-0.125
17,TAGGGCGA,-0.015
18,TAATGAGA,-0.102
19,CCTGGTCC,-0.0872
20,ATCCCCAA,0.124
21,CGACTATC,0.145
22,ATAGAAAT,-0.0573
23,CTGTGTCC,0.0632
24,CTTTTCTC,-0.248
25,ACTCTAGC,-0.118

row,Sequence,PBM E-score
1,GAGCACGC,-0.132
2,AAAGTCGA,-0.0163
3,AACACGCT,0.00013
4,AATCATAC,0.4
5,ACCGTCTA,-0.218
6,CCTATTCG,-0.19
7,CTCTGATA,-0.02
8,CGCGCAGC,-0.0206
9,ACTCGGTA,0.0244
10,AAGATCAG,0.0101
11,TAGCCCTA,-0.161
12,CACGGCGC,0.163
13,GAATTAAC,-0.0106
14,CAGTAGAC,-0.0792
15,GGTGGTTA,0.0977
16,CTGGTTGC,0.212
17,AACACAGA,0.14
18,AAAATTGG,-0.0887
19,GGGCTCGA,-0.128
20,CCGTTGTC,0.0439
21,ACGGCTAT,-0.221
22,GAGCCTCA,-0.161
23,GGTTGCAC,0.0671
24,GCCGGAAA,-0.124
25,TAGTCACA,0.394

row,Sequence,PBM E-score
1,CTAAGGAG,-0.283
2,CCCGTATC,0.00213
3,CCCCCGAA,-0.196
4,CATCCTAC,0.0893
5,AGCCACTG,0.136
6,GAATCTAA,0.00301
7,AGCTGGCC,-0.0882
8,GATAGGGC,-0.198
9,GCGATTTA,-0.133
10,AAAGGAAT,-0.147
11,GCGCGTGA,0.149
12,AAAACCAC,-0.109
13,GGGTACAC,0.0632
14,CTCCATAC,0.0791
15,ACACTAGG,0.13
16,GACGCTTA,-0.197
17,GGCACGGA,-0.00459
18,CCTCTCTA,-0.27
19,CTCTTGTA,0.0809
20,GCTCCAGC,0.0134
21,AGTCGTAA,0.16
22,GCCACGGC,-0.0877
23,GGGAGCAA,-0.143
24,GAAGCTCC,-0.0945
25,CCCAAGCA,0.109

row,Sequence,PBM E-score
1,CATACAGC,-0.0846
2,GGTAAAAA,-0.0946
3,GCTAAAGA,0.0836
4,TCTGATAA,-0.171
5,TATCCAAA,0.118
6,AAGGACAC,-0.0556
7,ACTGTCGC,0.0294
8,CACGCGGC,0.00996
9,CAATACTC,0.137
10,ATGAGCTC,0.134
11,CGATGGGC,0.297
12,CTCTGTTC,0.0833
13,CTAGAAAA,-0.223
14,GGATAATA,0.0366
15,AAAGATTC,0.0547
16,AAGGTGAC,0.0791
17,GTCGCAAC,0.125
18,CTAACATA,0.0142
19,CACAAAGA,-0.0121
20,GGCTTCGA,-0.0524
21,ACGTAGAT,-0.00676
22,GATTCCAC,0.191
23,AGGACCAC,0.13
24,GTCCTTTA,-0.0543
25,GGCGGGAC,0.0887

row,Sequence,PBM E-score
1,ACCTCGTC,0.0949
2,CGCGCCAG,0.182
3,GTGCCTCA,-0.151
4,GGTGGAAA,-0.209
5,CGGGAGTA,0.00502
6,GCAACAGC,-0.235
7,GGGCCCAC,-0.0236
8,ACCGCTCA,0.128
9,ATTTCGAC,-0.102
10,AATTTGAT,-0.0207
11,CGTCGCTC,-0.142
12,TTCAGCAA,-0.134
13,ACAACCGC,0.234
14,TATCGGCA,-0.218
15,CCCCAATC,0.126
16,ACTCGGAA,0.0207
17,GGGGTGCA,0.106
18,CGACTGCG,0.188
19,ACCATATA,0.132
20,CGGATAAG,-0.0104
21,CGTGGCCC,-0.222
22,AATCTCGA,0.0432
23,AAGAGCGA,0.0267
24,GCAATCCA,0.0419
25,GAAACTCA,0.00586

row,Sequence,PBM E-score
1,GTCATGAC,0.31
2,ACCAAATG,0.00534
3,ACCCTAGT,0.0534
4,CGAAACAA,0.079
5,AGACACGC,0.0967
6,AATGGTAT,0.0874
7,GAGACGCC,-0.0261
8,GTAACTCA,0.0483
9,TCCAGACA,-0.112
10,GACTTGTA,0.0565
11,AGCCCAGG,-0.322
12,AACTGAGT,0.182
13,CCTCCTCA,-0.1
14,AAAGTGCA,-0.22
15,ACCCATAC,0.222
16,ACTGCCCT,-0.0286
17,AAAAAGGC,-0.187
18,CAAACGGA,-0.171
19,ACACTGCG,0.0586
20,CTACCTCC,0.241
21,AAGGAGGG,0.0971
22,ATGTGATG,-0.0159
23,TCACCGGA,0.0906
24,GGAGAAAC,0.0248
25,CGCGGCGC,0.197

row,Sequence,PBM E-score
1,ACATAGAT,-0.0848
2,CAAGAGAC,-0.138
3,ATCGCTGA,0.00777
4,CCCCACAC,0.0119
5,CCCCTTTC,-0.177
6,TAGCTACA,0.0139
7,TAGCGAAA,-0.114
8,ACAGCTGT,0.0493
9,TCGGCCGA,0.252
10,ATCAAAGC,-0.089
11,CCTCAGTC,0.0647
12,GATGAAAA,0.0464
13,CTTCAACA,-0.00632
14,AAATGCTC,-0.219
15,CTTCTTAA,-0.11
16,AGCAATTC,-0.123
17,AGGGCGCG,0.00533
18,TGGGCTAA,-0.147
19,AACGGTCG,-0.028
